# Test results: PubChem BioAssay AID686978 (National Center for Advancing Translational Sciences (NCATS), 2013)
# “And” between values parts separate entries of the source, which are not always exact repeats. Equal entries are not always repeated. Hit rate of the full screen: of about 420,000 compounds, about 64,000 (15%) were called active. This list was built around the results that the source calls inconclusive (neither active nor inactive); the mix of calls is not that of the screen. Calls follow the shape of the dose curve; as a rule, active = well fitted inhibition curve with a large enough effect; inconclusive = small, poorly fitted or top-dose-only effect; inactive = flat fitted curve, though single readings scatter. Where the call is inconclusive, the potency comes from a doubtful curve fit.
# Experiment: qHTS for Inhibitors of human tyrosyl-DNA phosphodiesterase 1 (TDP1): qHTS in cells in absence of CPT; also: nearly all actives have a fitted effect of over 55% in size
# Conditions: DT40 Tdp1-/- hTDP1 cells, no CPT, ATP luminescence, 48 h; activity change, negative = growth inhibition: at 46.2 µM (top of the series)
# How it was run: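 Luminescent ATP content (CellTiter-Glo) served as the growth readout. Knockout chicken DT40 cells expressing human TDP1 were exposed to compounds without camptothecin for a minimum 48 hr at 37 °C.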
# % is scaled to controls: 0 for no effect and ±100 for the full control effect; potency is read from the fitted curve at half-maximal effect; tags tell the direction and shape of the fitted curve.
Compound,Potency,"activity change, negative = growth inhibition"
Cc1ccc(NC(=O)C(C)Sc2nnc(-c3cccnc3)n2-c2ccccc2)cc1 (configuration not stated),"inconclusive: 13 µM [inhibitor, single point]",–
COc1cc(C2NC(=O)C(C#N)=C(Nc3cccc(C)c3)S2)ccc1O (configuration not stated),"inconclusive: 11.6 µM [inhibitor, partial curve]",–
COc1ccc(-c2cn3ccc(C)cc3n2)cc1,"inconclusive: 23.1 µM [inhibitor, single point]",–
Cc1cc(NC(=O)COC(=O)c2n[nH]c3ccccc23)no1,–,inactive: -16.3%
Cc1cc2ncn(-c3ncnc4sc5c(c34)CCCC5)c2cc1C,"inconclusive: 18.4 µM [inhibitor, single point]",–
CC(=O)NCCc1ccc(C(=O)COC(=O)c2cccs2)cc1,–,inactive: -3.86%
CCOc1ccc(C(C(=O)NCC2CCCO2)N(C(=O)c2snc(C(N)=O)c2N)c2ccccc2F)cc1 (configuration not stated),"inconclusive: 29.1 µM [inhibitor, single point]",–
Cc1ccc(NC(=O)c2sc3nc(N4CCOCC4)c4c(c3c2N)CCCC4)cc1,"inconclusive: 23.1 µM [inhibitor, single point]",–
Cc1ccc(NC(=O)Nc2c(C)n(C)n(-c3ccccc3)c2=O)cc1C,active: 23.1 µM,–
Cc1cccc(C)c1NC(=O)C(NC(=O)c1ccccn1)c1ccc([N+](=O)[O-])cc1 (configuration not stated),–,inactive: -20.9%
C[C@@H]1C(=O)O[C@H]2[C@@H](O)[C@@]34[C@H]5CC(C(C)(C)C)[C@]36[C@@H](OC(=O)[C@@H]6O)O[C@@]4(C(=O)O5)[C@@]12O (some centres not stated),–,inactive: -10.5%
CC1(C)Cc2nc3sc4c(=O)n(CC(=O)NCc5ccccc5)cnc4c3cc2CO1,active: 3.66 µM,–
COc1ccc(NS(=O)(=O)c2ccc3[nH]c4c(c3c2)CCCCC4)cc1,active: 23.1 µM,–
O=C1c2ccccc2C(Nc2ccccc2)N1c1ccc(Cl)cn1 (configuration not stated),"inconclusive: 29.1 µM [inhibitor, single point]",–
CC1CN(S(=O)(=O)c2ccc(C(=O)Nc3nnc(-c4ccco4)o3)cc2)CC(C)O1 (configuration not stated),"inconclusive: 20.6 µM [inhibitor, single point]",–
C[C@H](NC(=O)c1ccccc1Cl)C(=O)OCCOc1cccc(Cl)c1,"inconclusive: 29.1 µM [inhibitor, single point]",–
CCCCNC(=O)c1oc2ccc(S(=O)(=O)N3CCCC3)cc2c1C,"inconclusive: 23.1 µM [inhibitor, single point]",–
COc1ccc(Oc2ncc(CN3CCN(c4ccccc4)CC3)s2)cc1,"inconclusive: 29.1 µM [inhibitor, single point]",–
Cc1ccccc1OCC(=O)OCC(=O)Nc1cc(S(C)(=O)=O)ccc1Cl,–,inactive: -0.274%
COc1ccc(C(=O)C2CCCN(C(=O)c3ccc4nccnc4c3)C2)c(C)c1 (configuration not stated),"inconclusive: 23.1 µM [inhibitor, partial curve]",–
O=C(c1cc([N+](=O)[O-])cc([N+](=O)[O-])c1)N1CCN(Cc2ccc3c(c2)OCO3)CC1,"inconclusive: 10.3 µM [inhibitor, partial curve]",–
CCCNC(=O)c1cc(C2CCCN(C(=O)c3ccc(OC)cc3)C2)on1 (configuration not stated),–,inactive: -27.1%
CC(=O)N1N=C(c2cccs2)CC1c1ccc(Br)cc1 (configuration not stated),"inconclusive: 6.51 µM [inhibitor, partial curve]",–

Compound,Potency,"activity change, negative = growth inhibition"
Cc1cc(NC(=O)COn2nnc3ccccc32)no1,–,inactive: -17.8%
Cc1ccc([C@H]2N[C@]3(CCCN(Cc4ccc(Cl)cc4)C3=O)[C@H]3C(=O)N(C)C(=O)[C@@H]23)cc1,"inconclusive: 2.59 µM [inhibitor, partial curve]",–
Cc1ccc(C(=O)N(C)Cc2ccc(N3CCOCC3)cc2)cc1S(=O)(=O)NCc1ccccc1,–,inactive: -13%
COc1ccccc1-c1nnc(SCC(=O)NNC(=O)c2ccccc2F)n1C,–,inactive: -0.635%
Cn1c2ccccc2c2cnn(CC(=O)NCCCN3CCN(c4ccccc4F)CC3)c(=O)c21,active: 16.4 µM and active: 14.6 µM,–
Cc1ccc2oc(=O)c3cnn(CC(=O)N(Cc4ccco4)C4CCCCC4)c3c2c1,"inconclusive: 29.1 µM [inhibitor, single point]",–
CCN(CC)N=Nc1[nH]nc2nc(C)cc(C)c12,"inconclusive: 29.1 µM [inhibitor, single point]",–
CC(C)c1ccc2occ(CC(=O)N(Cc3ccc(F)cc3)C3CCS(=O)(=O)C3)c2c1 (configuration not stated),"inconclusive: 16.4 µM [inhibitor, single point]",–
CCCC(C)c1nnc(NC(=O)c2cc(C(=O)OC)cc([N+](=O)[O-])c2)s1 (configuration not stated),"inconclusive: 18.4 µM [inhibitor, partial curve]",–
CC(=O)c1ccc(N2CCN(C(=O)Nc3ccc(C(C)C)cc3)CC2)cc1,active: 4.11 µM and active: 16.4 µM,–
CC(NC1CCCCC1)C(=O)NN=C(c1ccccc1)c1ccccc1 (configuration not stated),"inconclusive: 20.6 µM [inhibitor, single point]",–
CCn1c(-c2ccccc2F)nc2cc(C(=O)NCc3ccc(C)o3)cc(NC(C)=O)c21,–,inactive: 2.11%
O=C(Nc1ccccc1)N(Cc1cccc(Cl)c1)c1ccccn1,"inconclusive: 29.1 µM [inhibitor, single point]",–
CC(=O)Nc1ccccc1N(CC(O)Cn1c2ccccc2c2ccccc21)S(=O)(=O)c1ccc(C)cc1 (configuration not stated),active: 18.4 µM,–
O=C(OCC(=O)N1CCOCC1)c1ccc(Cl)c(S(=O)(=O)N2CCc3ccccc32)c1,"inconclusive: 29.1 µM [inhibitor, single point]",–
O=C(Nc1ccccc1)N1CCn2c1nc1ccccc12,"inconclusive: 29.1 µM [inhibitor, single point]",–
COc1ccc(NC(=O)c2ccco2)cc1NC(=O)c1c(OC)cccc1OC,"inactive and inconclusive: 20.6 µM [inhibitor, single point]",–
CN(NC(=O)COc1ccccc1)C1=NS(=O)(=O)c2ccccc21,–,inactive: 2.35%
COc1cccc(-n2c(SCC(=O)Nc3nc4ccccc4s3)nc3ccccc3c2=O)c1,"inconclusive: 18.4 µM [inhibitor, partial curve]",–
Cc1ccc(S(=O)(=O)N2[C@@H](c3ccc(Cl)cc3)C(C(=O)O)=CC[C@H]2c2ccc(Cl)cc2)cc1,"inconclusive: 18.4 µM [inhibitor, single point]",–
COc1ccc([N+](=O)[O-])cc1NS(=O)(=O)c1cccc(C(=O)OC2CCOC2=O)c1 (configuration not stated),–,inactive: -7.65%
COc1ccc(/C=N/N2C(=O)CN(C(=O)c3ccccc3)C2c2ccc(OC)cc2)cc1 (configuration not stated),"inconclusive: 18.4 µM [inhibitor, partial curve]",–
C=CCN(c1ccccc1)S(=O)(=O)c1cccc(C(=O)NCc2ccncc2)c1,"inconclusive: 18.4 µM [inhibitor, single point]",–

Compound,Potency,"activity change, negative = growth inhibition"
CC(C)CCn1c(=O)c2ccccc2n2c(CN3CCOCC3)nnc12,–,inactive: -26.9%
C[C@@H]1CCC2[C@](C)(CO)[C@@H](O)CC[C@]2(C)[C@@]12C[C@](CO)(CC(=O)O)CO2 (some centres not stated),–,inactive: -15%
CCc1nc2ccc(C(=O)N3CCN(S(=O)(=O)CC)CC3)cn2c1N(CC)Cc1cccc(Br)c1,"inconclusive: 18.4 µM [inhibitor, single point]",–
COc1ccc(NC(=O)c2nc[nH]c2C(=O)N[C@H](C)c2ccccc2)cc1,"inconclusive: 29.1 µM [inhibitor, single point]",–
CNc1ccc(Br)cc(C(=O)/C=C/c2cccc(OC)c2OC)c1=O,–,inactive: 1.21%
Cn1c(SCC(=O)NC(c2ccccc2)c2ccccc2)nnc1-c1cccs1,"inconclusive: 20.6 µM [inhibitor, single point]",–
Cc1ccccc1NC(=O)c1c(-c2ccccc2)noc1C,active: 9.2 µM,–
CC(C)(C)n1nnnc1C(c1cccc(C#N)c1)N1CCCCCC1 (configuration not stated),active: 16.4 µM,–
CC(=O)c1ccc(N2CCN(C(=O)c3c(-c4ccccc4Cl)noc3C)CC2)cc1,"inconclusive: 18.4 µM [inhibitor, partial curve, poor fit]",–
CN(C)S(=O)(=O)c1ccc(Cl)c(NC(=O)CN2CCCC2)c1,–,inactive: -3.63%
CC1(CCC(=O)N2CCCC(Nc3ccc(F)cc3)C2)CC1 (configuration not stated),–,inactive: -11.1%
COc1cccc(CN2CC(C(=O)NCCc3ccc(C)o3)CCC2=O)c1 (configuration not stated),–,inactive: 15.6%
CN(Cc1ccccc1)c1ccc(N2C(=O)CCC2=O)cc1[N+](=O)[O-],"inconclusive: 18.4 µM [inhibitor, single point]",–
O=C(NNc1cccc(Cl)n1)c1ccc(Cl)cc1Cl,–,inactive: 1.82%
COC(=O)c1cn(C(=O)c2ccc3c(c2)OCO3)c2ccccc12,active: 16.4 µM,–
O=C(c1ccc(F)cc1F)N1CCCc2ccccc21,"inconclusive: 29.1 µM [inhibitor, single point]",–
CCN(C(=O)c1cccs1)c1nnc(-c2ccncc2)s1,"inconclusive: 16.4 µM [inhibitor, partial curve, poor fit]",–
CCOc1ccc(CN2C(=O)c3ccccc3C2C(=O)NCCc2ccc(OC)c(OC)c2)cc1 (configuration not stated),"inconclusive: 18.4 µM [inhibitor, single point]",–
COc1cccc(/C=C/C(=O)OCC(=O)NCCNC(=O)COC(=O)/C=C/c2cccc(OC)c2)c1,"inconclusive: 18.4 µM [inhibitor, single point]",–
COc1ccc(Cn2c(CO)cnc2SCc2ccccc2C)cc1,"inconclusive: 29.1 µM [inhibitor, single point]",–
COc1ccc(CNC(=O)Cc2c(C)c3cc4c(C)coc4c(C)c3oc2=O)cc1OC,"inconclusive: 8.2 µM [inhibitor, partial curve, poor fit]",–
